Assay results as given in PubChem BioAssay AID504845 (National Center for Advancing Translational Sciences (NCATS), 2011).
About 150 (0.038%) of roughly 390,000 compounds were called active. Roughly 3% stayed inconclusive and do not appear here. Calls come from the whole dose curve; as a rule, active = well fitted inhibition curve with a large enough effect; inconclusive = small, poorly fitted or top-dose-only effect; inactive = no such curve, though single readings can be large or run the other way. Only a part is listed here, and it is no random draw.

These molecules were tested against Regulator of G-protein signaling 4 (Homo sapiens) (UniProt P49798) (assay: Inhibitors of Regulator of G Protein Signaling (RGS) 4: qHTS). Details: Transcreener GDP fluorescence polarization, RGS4-accelerated GTP hydrolysis; series mostly up to 114 µM; activity change, negative = inhibition: at the top concentration.
How it was run: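 MLSMR compounds (23 nl, pin-transferred) preincubated 10 min at room temperature with a 500nM (2x) first reagent, then RGS4 at 900nM (2x) plus Transcreener GDP mix added; fluorescence polarization (620/688 nm) read before and after 90 min at 30 °C.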
% is set by controls: 0 for no effect and ±100 for the full control effect; potency is the fitted concentration of half-maximal effect.
Note: nearly all actives have a fitted effect of over 75% in size.

Chain of UniProt P49798 (P49798 whole entry, looked up): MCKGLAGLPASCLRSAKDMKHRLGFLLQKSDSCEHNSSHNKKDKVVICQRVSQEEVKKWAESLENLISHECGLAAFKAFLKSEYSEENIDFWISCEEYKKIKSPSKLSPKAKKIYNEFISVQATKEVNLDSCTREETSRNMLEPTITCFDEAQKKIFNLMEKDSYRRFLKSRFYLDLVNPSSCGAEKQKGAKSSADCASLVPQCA

Activity change, negative = inhibition, inactive:
O=C(CCn1c(=S)[nH]c2ccccc2c1=O)NCCCN1CCOCC1 55.9%, COc1cccc2c1C(=O)c1c(O)c3c(c(O)c1C2=O)C[C@](O)(C(C)=O)C[C@H]3O[C@@H]1C[C@@H](N)[C@@H](O)[C@@H](C)O1 -28.4%, COc1cc(/C=C2/SC(=O)NC2=O)ccc1Oc1ccc([N+](=O)[O-])cc1[N+](=O)[O-] 32.5% [at 11.4 µM], C[C@@H]1CC=C[C@H]2[C@H]1C(=O)N(Cc1ccccc1)[C@H]2c1ccc(-c2ccoc2)cc1F -47.6%, CN([C@@H](Cc1ccc(OS(=O)(=O)c2cccc3cnccc23)cc1)C(=O)N1CCN(c2ccccc2)CC1)S(=O)(=O)c1cccc2cnccc12 12.5%, CC1(C)Oc2ccc(C(=O)NC3CCCC3)cc2N(CC(=O)NC2CCCCC2)C1=O 57.1%, CCc1ccc(/C=C2/SC(=S)N(CCCC(=O)Nc3ccccc3C(=O)O)C2=O)cc1 1.79%, Cc1ccc(S(=O)(=O)N2c3ccccc3NC(=O)C2CC(=O)Nc2ccccc2)cc1 (stereo unspecified) 67.4%, Cc1onc(-c2ccccc2)c1C(=O)Nc1ccncc1 54.1%, CCCCc1c(O)nc(SCC(=O)NCCc2ccc(OC)c(OC)c2)[nH]c1=O 56.3%, CC#C[C@]1(O)CC[C@H]2[C@@H]3CCC4=CC(=O)CCC4=C3[C@@H](c3ccc(N(C)C)cc3)C[C@@]21C -13.1%, COc1cc(NC(=O)C2CC2C)c(C(=O)O)cc1OC (stereo unspecified) 58.5%, CCN(CC)CCOCCOC(=O)C1(c2ccccc2)CCCC1 -3.13%, Cc1cc(F)c(F)c(C(=O)N2CCN(C)CC2)c1Cl 56%, COc1ccc(NC(=O)CCC(=O)c2ccc(C(C)C)cc2)cc1 71%, CC(=O)Nc1ccccc1OC(C)C(=O)N1CCC(C)CC1 (stereo unspecified) 55.4%, N#CC1=C(N)C(C#N)(C#N)C(c2ccncc2)C2CN(C(=O)OCc3ccccc3)CC=C12 (stereo unspecified) -53.6%, N=C(N)SCc1nc2ccccc2c(=O)n1-c1ccccc1 -36.1%, O=C(O)CCC(=O)NCCn1c(-c2ccccc2)csc1=Nc1ccccc1 -9.42%, CC1CCC2[C@](C)(CO)C(O)CC[C@]2(C)C12CCC(CO)(CCO)O2 (stereo partly specified) -51.2% [at 56.9 µM], CC(=O)Nc1nc(C)c(-c2csc(Nc3ccccn3)n2)s1 -38.2%, Cc1ccc2c(=O)cc(C(=O)Nc3ccc(S(=O)(=O)Nc4onc(C)c4C)cc3)oc2c1 -9.5%, O=C(CSc1nnc(Cc2ccccc2)o1)NC1CCCCC1 54.2%, C[C@](Cc1ccc(O)c(O)c1)(NN)C(=O)O -6.49% [at 56.9 µM], Cc1nnc(NC(=O)CSc2nnc(C)n2Cc2ccccc2)s1 60.1%, O=C(Oc1ccccc1N1C(=O)C2CCCCC2C1=O)c1ccccc1 (stereo unspecified) 60.8%, CCOC(=O)c1c(NC(=O)c2cc(CC(C)C)on2)sc(C(C)=O)c1C -37%, Cc1cccc(/C=C2\Sc3ccc(C(=O)NCC4CCCO4)cc3N(C)C2=O)c1 (stereo unspecified) 58.2%, CCCCOc1ccc(C2=NNC(=O)CC2)cc1 64.3%, CCOCCCn1c(=NC(=O)c2cccnc2)c(C(=O)OCC)cc2c(=O)n3ccccc3nc21 -0.42%, NC1CCN(O)C1=O (stereo unspecified) -8.34% [at 56.9 µM], CC(C)c1ccc(C2(C)NC(=O)N(CC(=O)NC3(C#N)CCCC3)C2=O)cc1 (stereo unspecified) 68.4%, COc1cc(/C=C2\SC(=S)N(CC(=O)Nc3cccnc3)C2=O)cc(OC)c1OC -9.25%, CN1CC(O)C(O)C(O)C1CO (stereo unspecified) -1.06% [at 56.9 µM], Cc1c(NS(=O)(=O)c2cccc(C(=O)O)c2)c(=O)n(-c2ccccc2)n1C -9.7%, C[C@@](Cc1ccc(O)c(O)c1)(NN)C(=O)O 42.4%, Nc1ncnc2c1ncn2[C@@H]1O[C@H](CO)[C@@H](O)[C@@H]1O -1.3%, COc1cccc2c1C(=O)c1c(O)c3c(c(O)c1C2=O)C[C@@](O)(C(=O)CO)C[C@@H]3OC1CC(N)C(O)C(C)O1 (stereo partly specified) 0.84%, CN1CCN(CC(=O)N2c3ccccc3C(=O)Nc3cccnc32)CC1 -15.5% [at 56.9 µM], CCCCn1c(NCCN(C)C)nc2c1c(=O)[nH]c(=O)n2C 55%, COC(=O)C1CCN(CCCOc2ccc(CN3CCN(c4ccc([N+](=O)[O-])cc4)CC3)cc2)CC1 70.5%, C[C@@]1(C2CCCC2)Cc2cc(OCC(=O)O)c(Cl)c(Cl)c2C1=O 3.44% [at 56.9 µM], CC1=NS(=O)(=O)c2cc(Cl)ccc2N1 -6%, COc1ccccc1/C=C\C=N\n1c(-c2ccc(Cl)cc2Cl)n[nH]c1=S -41.5%, CNCCc1cnc(CCC(c2ccccc2)c2ccccc2)[nH]1 5.43% [at 56.9 µM], CC[C@](N)(CCC(=O)O)C(=O)O 30% [at 56.9 µM], Cc1cccc(CS(=O)(=O)c2ncc(Cl)c(C(=O)Nc3nnc(C(C)C)s3)n2)c1 -34.4%, NCCCCCC(=O)O -1.66%, CCn1cc(C(=O)N2CCCC2)c(=O)c2cc(S(=O)(=O)N3CC(C)CC(C)C3)ccc21 (stereo unspecified) 55.4%, Clc1cccc(Cl)c1NC1=NCCN1 35.5% [at 56.9 µM], CN(C)S(=O)(=O)c1ccc2c(c1)/C(=C/c1cc3c([nH]1)CCCC3)C(=O)N2 -35.4%, Cc1nn(C)c(Oc2ccc(Cl)cc2)c1C(=O)O 55.6%, C[C@H]1c2cccc(O)c2C(O)=C2C(=O)[C@]3(O)C(O)=C(C(N)=O)C(=O)[C@@H](N(C)C)C3[C@@H](O)C21 (stereo partly specified) -13.5%, CC(=O)Nc1ccc(NC(=O)c2c(-c3ccccc3)noc2C)cn1 65.1%, C[C@H](C(=O)O)c1cccc(C(=O)c2ccccc2)c1 2.17%

Potency, inactive:
NC(N)=NC(N)=Nc1ccccc1, COc1ccc(Cl)cc1C(=O)NCCc1ccc(S(=O)(=O)NC(=O)NC2CCCCC2)cc1, N[C@H]1CONC1=O, CN[C@H]1CC[C@@H](c2ccc(Cl)c(Cl)c2)c2ccccc21, Clc1ccc2nsnc2c1NC1=NCCN1, CCC1(c2ccccc2)C(=O)NCNC1=O, NC[C@@H]1O[C@H](C23CC4CC(CC(C4)C2)C3)Cc2c1ccc(O)c2O, CC1CCN(CC[C@H]2CCCN2S(=O)(=O)c2cccc(O)c2)CC1, CC(C)NCC(O)COc1ccc(CC(N)=O)cc1 (stereo unspecified)

Potency, active:
C[C@H](Cc1ccc(O)c(O)c1)[C@@H](C)Cc1ccc(O)c(O)c1 15 µM, O=C1NC(=O)c2cc(Nc3ccccc3)c(Nc3ccccc3)cc21 18.9 µM
